Measurements reported in PMC10912198.
These are yes or no findings as the source states them, for the method shown. In cells and extracts the contact can be indirect. Some entries that bind do so weakly or less than the wild type. Tags and fused reporters may be left off the sequences shown.

Protein sequences, listed by entry. Tags and fused reporters are not part of them. Residues count along the entry.
UniProt Q9CXZ1, residues 43-175: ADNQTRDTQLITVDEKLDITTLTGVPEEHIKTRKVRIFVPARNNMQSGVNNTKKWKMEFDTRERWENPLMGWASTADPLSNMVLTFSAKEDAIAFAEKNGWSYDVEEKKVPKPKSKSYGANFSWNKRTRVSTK

Legend:
[1] = molecular target: GST-NDUFS4 fusion protein (UniProt Q9CXZ1); experiment: pull-down; 2 ug GST or GST-NDUFS4 immobilized on Glutathione Sepharose 4B beads, incubated 3 h at 4 C with cleared lysate (TNTE buffer) of HEK293T cells expressing STOML2-HA or deletion mutants; immunoblot; only the target purified
[2] = molecular target: NDUFS4-FLAG (mouse) (UniProt Q9CXZ1); experiment: co-IP; HEK293T transiently transfected, crosslinked with 1 mM DSP 30 min, RIPA lysis diluted with NETN; Anti-FLAG M2 magnetic beads overnight at 4 C, 3X FLAG peptide elution, immunoblot; IgG as negative control

Row | Binder | binding [1] | binding [2]
1 | STOML2 ΔCTD (Δ213–353)-HA (domain or fragment, UniProt Q99JB2 29-212) SSGLPRNTVILFVPQQEAWVVERMGRFHRILEPGLNVLIPVLDRIRYVQSLKEIVINVPEQSAVTLDNVTLQIDGVLYLRIMDPYKASYGVEDPEYAVTQLAQTTMRSELGKLSLDKVFRERESLNANIVDAINQAADCWGIRCLRYEIKDIHVPPRVKESMQMQVEAERRKRATVLESEGTRE | binds | binds
2 | STOML2-HA fusion protein (wild type, full length) (protein, UniProt Q99JB2 29-353) SSGLPRNTVILFVPQQEAWVVERMGRFHRILEPGLNVLIPVLDRIRYVQSLKEIVINVPEQSAVTLDNVTLQIDGVLYLRIMDPYKASYGVEDPEYAVTQLAQTTMRSELGKLSLDKVFRERESLNANIVDAINQAADCWGIRCLRYEIKDIHVPPRVKESMQMQVEAERRKRATVLESEGTRESAINVAEGKKQAQILASEAEKAEQINQAAGEASAVLAKAKAKAEAIRILAGALTQHNGDAAASLTVAEQYVSAFSKLAKDSNTVLLPSNPSDVTSMVAQAMGVYGALTKAPVPGAQNSSQSRRDVQATDTSIEELGRVKLS | binds | 
3 | STOML2 ΔHP (Δ29–78)-HA (protein, UniProt Q99JB2) LKEIVINVPEQSAVTLDNVTLQIDGVLYLRIMDPYKASYGVEDPEYAVTQLAQTTMRSELGKLSLDKVFRERESLNANIVDAINQAADCWGIRCLRYEIKDIHVPPRVKESMQMQVEAERRKRATVLESEGTRESAINVAEGKKQAQILASEAEKAEQINQAAGEASAVLAKAKAKAEAIRILAGALTQHNGDAAASLTVAEQYVSAFSKLAKDSNTVLLPSNPSDVTSMVAQAMGVYGALTKAPVPGAQNSSQSRRDVQATDTSIEELGRVKLS | binds | 
4 | STOML2 Δ110–168-HA (protein, UniProt Q99JB2) SSGLPRNTVILFVPQQEAWVVERMGRFHRILEPGLNVLIPVLDRIRYVQSLKEIVINVPEQSAVTLDNVTLQIDGVLYLRIGIRCLRYEIKDIHVPPRVKESMQMQVEAERRKRATVLESEGTRESAINVAEGKKQAQILASEAEKAEQINQAAGEASAVLAKAKAKAEAIRILAGALTQHNGDAAASLTVAEQYVSAFSKLAKDSNTVLLPSNPSDVTSMVAQAMGVYGALTKAPVPGAQNSSQSRRDVQATDTSIEELGRVKLS | binds | 
5 | STOML2 ΔSTOM (Δ79–212)-HA (protein, UniProt Q99JB2) SSGLPRNTVILFVPQQEAWVVERMGRFHRILEPGLNVLIPVLDRIRYVQSSAINVAEGKKQAQILASEAEKAEQINQAAGEASAVLAKAKAKAEAIRILAGALTQHNGDAAASLTVAEQYVSAFSKLAKDSNTVLLPSNPSDVTSMVAQAMGVYGALTKAPVPGAQNSSQSRRDVQATDTSIEELGRVKLS | no binding | 
6 | STOML2 Δ70–109-HA (protein, UniProt Q99JB2) SSGLPRNTVILFVPQQEAWVVERMGRFHRILEPGLNVLIPVMDPYKASYGVEDPEYAVTQLAQTTMRSELGKLSLDKVFRERESLNANIVDAINQAADCWGIRCLRYEIKDIHVPPRVKESMQMQVEAERRKRATVLESEGTRESAINVAEGKKQAQILASEAEKAEQINQAAGEASAVLAKAKAKAEAIRILAGALTQHNGDAAASLTVAEQYVSAFSKLAKDSNTVLLPSNPSDVTSMVAQAMGVYGALTKAPVPGAQNSSQSRRDVQATDTSIEELGRVKLS | no binding | 
7 | STOML2 Δ169–212-HA (protein, UniProt Q99JB2) SSGLPRNTVILFVPQQEAWVVERMGRFHRILEPGLNVLIPVLDRIRYVQSLKEIVINVPEQSAVTLDNVTLQIDGVLYLRIMDPYKASYGVEDPEYAVTQLAQTTMRSELGKLSLDKVFRERESLNANIVDAINQAADCWSAINVAEGKKQAQILASEAEKAEQINQAAGEASAVLAKAKAKAEAIRILAGALTQHNGDAAASLTVAEQYVSAFSKLAKDSNTVLLPSNPSDVTSMVAQAMGVYGALTKAPVPGAQNSSQSRRDVQATDTSIEELGRVKLS | no binding | 
